{"source": "paper PMC4336329", "about": "(PLoS ONE, 2015)", "note": "Out of some 310,000 compounds screened, about 14,000 (4.5%) showed an effect of 50% or more. The effect is printed as a negative number. The list shows a part of the results.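 Further: peak tail current of the secondary pulse compared with the same well before compound.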", "data": [{"biological_target": "human ether-à-go-go-related gene (hERG) potassium channel (human, UniProt Q12809)", "sequence (Q12809 whole entry, looked up)": "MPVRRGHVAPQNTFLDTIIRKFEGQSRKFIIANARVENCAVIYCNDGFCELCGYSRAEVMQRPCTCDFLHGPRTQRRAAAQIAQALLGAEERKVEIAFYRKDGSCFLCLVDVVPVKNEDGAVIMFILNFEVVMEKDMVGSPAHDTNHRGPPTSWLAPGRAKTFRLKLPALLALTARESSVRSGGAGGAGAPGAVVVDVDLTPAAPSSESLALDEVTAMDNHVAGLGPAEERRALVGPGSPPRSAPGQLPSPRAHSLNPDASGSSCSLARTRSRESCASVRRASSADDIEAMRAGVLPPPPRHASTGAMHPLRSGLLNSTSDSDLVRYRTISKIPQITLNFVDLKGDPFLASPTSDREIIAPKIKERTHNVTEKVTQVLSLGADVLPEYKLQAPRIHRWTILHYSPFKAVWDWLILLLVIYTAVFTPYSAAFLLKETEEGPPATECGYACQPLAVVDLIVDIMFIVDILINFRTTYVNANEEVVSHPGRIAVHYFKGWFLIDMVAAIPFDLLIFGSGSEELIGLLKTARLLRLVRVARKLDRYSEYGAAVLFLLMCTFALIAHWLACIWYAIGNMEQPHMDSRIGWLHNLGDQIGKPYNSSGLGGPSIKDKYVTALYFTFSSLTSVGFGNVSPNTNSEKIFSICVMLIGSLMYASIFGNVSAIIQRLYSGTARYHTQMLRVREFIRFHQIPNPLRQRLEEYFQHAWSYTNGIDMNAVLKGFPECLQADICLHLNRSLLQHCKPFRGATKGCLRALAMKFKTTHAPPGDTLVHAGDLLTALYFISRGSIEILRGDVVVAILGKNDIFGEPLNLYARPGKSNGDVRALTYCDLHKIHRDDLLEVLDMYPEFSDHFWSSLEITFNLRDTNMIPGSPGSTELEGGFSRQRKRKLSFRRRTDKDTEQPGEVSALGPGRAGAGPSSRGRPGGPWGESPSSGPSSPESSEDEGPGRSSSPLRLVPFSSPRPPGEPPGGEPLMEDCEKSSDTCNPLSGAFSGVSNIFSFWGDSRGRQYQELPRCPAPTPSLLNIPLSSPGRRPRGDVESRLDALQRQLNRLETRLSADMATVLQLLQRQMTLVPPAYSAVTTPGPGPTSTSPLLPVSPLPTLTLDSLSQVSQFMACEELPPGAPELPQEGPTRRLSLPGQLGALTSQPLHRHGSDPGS", "assay": "primary screen, population patch clamp on CHO cells stably expressing hERG", "units": {"hERG current change (%, negative = inhibition) at 10uM": "%"}, "values": [{"smiles": "COc1ccc(N2CCN(C(=O)Cn3cnc4c3c(=O)n(C)c(=O)n4C)CC2)cc1", "hERG current change (%, negative = inhibition) at 10uM": 5.48}, {"smiles": "CCC(=O)N1CCN(c2ccccc2NC(=O)c2cccc(C)c2)CC1", "hERG current change (%, negative = inhibition) at 10uM": -49.4}, {"smiles": "COc1ccc(Br)cc1CNC(=O)CCNC(=O)Cn1ccc2ccccc2c1=O", "hERG current change (%, negative = inhibition) at 10uM": -13.2}, {"smiles": "N#Cc1cc(C(=O)c2ccccc2O)cn(-c2ccc(Cl)cc2)c1=O", "hERG current change (%, negative = inhibition) at 10uM": -38.7}, {"smiles": "Cc1ccc(/C(O)=C2\\C(=O)C(=O)N(C)C2c2ccc(F)cc2)cc1", "note": "(centres unmarked)", "hERG current change (%, negative = inhibition) at 10uM": 21.1}, {"smiles": "O=C(O)C1[C@H]2C(=O)N(Cc3cccs3)C[C@]23C=C[C@H]1O3", "note": "(some centres unmarked)", "hERG current change (%, negative = inhibition) at 10uM": 4.79}, {"smiles": "CCCN(CCC)CC(O)COc1ccc([N+](=O)[O-])cc1", "note": "(centres unmarked)", "hERG current change (%, negative = inhibition) at 10uM": -77.1}, {"smiles": "Cn1nc(C(F)(F)F)cc1C(=O)Nc1ccc(-c2ccno2)cc1", "hERG current change (%, negative = inhibition) at 10uM": 16.8}, {"smiles": "CCNc1nc(N)nc(Oc2ccc(OCCOc3ccccc3)nn2)n1", "hERG current change (%, negative = inhibition) at 10uM": -2.96}, {"smiles": "CS(=O)(=O)c1ccc(Cl)c(NC(=O)CSc2n[nH]c(-c3cccs3)n2)c1", "hERG current change (%, negative = inhibition) at 10uM": -18.9}, {"smiles": "CCOC(=O)CNC(=O)CN1C(=O)CC(c2ccccc2)S(=O)(=O)c2ccccc21", "note": "(centres unmarked)", "hERG current change (%, negative = inhibition) at 10uM": -8.24}, {"smiles": "COC(=O)NCC(c1cccnc1)N1CCOCC1", "note": "(centres unmarked)", "hERG current change (%, negative = inhibition) at 10uM": 3.17}, {"smiles": "Oc1ccc(N=Cc2cc(Br)c(N3CCOCC3)o2)cc1", "hERG current change (%, negative = inhibition) at 10uM": -4.21}, {"smiles": "Cc1cc(SC#N)cc(C)c1NC(=O)CCl", "hERG current change (%, negative = inhibition) at 10uM": 10.5}, {"smiles": "C=CCn1c(SC(C)C(=O)Nc2ccc(Cl)cn2)nnc1C1CC1", "note": "(centres unmarked)", "hERG current change (%, negative = inhibition) at 10uM": -32.6}, {"smiles": "COC(=O)c1ccc(OC(=O)CS(=O)c2ccccc2[N+](=O)[O-])cc1", "note": "(centres unmarked)", "hERG current change (%, negative = inhibition) at 10uM": 31}, {"smiles": "Cc1ccc(C2=NS(=O)(=O)N(C)C(C(=O)NC3CCCCC3)=C2)cc1", "hERG current change (%, negative = inhibition) at 10uM": 16.6}, {"smiles": "COc1ccc(S(=O)(=O)N2CCOC23CCN(C(=O)c2ccccc2OC)CC3)cc1", "hERG current change (%, negative = inhibition) at 10uM": -19.8}, {"smiles": "CC(C)CCNC(=O)CSc1nnc(-c2ccc(S(=O)(=O)N3CCCC3)cc2)n1C", "hERG current change (%, negative = inhibition) at 10uM": 29.5}, {"smiles": "Cc1ccc(N(Cc2cc3ccc(C)cc3[nH]c2=O)C(=O)c2ccco2)c(C)c1", "hERG current change (%, negative = inhibition) at 10uM": 0.0198}, {"smiles": "Cn1c(SCC(=O)N/N=C/c2ccc([N+](=O)[O-])s2)nnc1-c1ccccc1", "hERG current change (%, negative = inhibition) at 10uM": -32.4}, {"smiles": "O=C(CCCOc1ccccc1)Nc1nc2ccccc2[nH]1", "hERG current change (%, negative = inhibition) at 10uM": 3.82}, {"smiles": "C=CCn1c(SCc2cccc3ccccc23)nnc1-c1cccnc1", "hERG current change (%, negative = inhibition) at 10uM": -36.8}, {"smiles": "CCCc1cc(=O)[nH]c(SCC(N)=O)n1", "hERG current change (%, negative = inhibition) at 10uM": -7.67}, {"smiles": "Cc1cc(C)c(NC(=O)COc2ccc(-n3cnnn3)cc2)c(C)c1", "hERG current change (%, negative = inhibition) at 10uM": -30.1}, {"smiles": "CCN(CC(=O)Nc1ccccc1OC)CC(=O)Nc1sccc1C#N", "hERG current change (%, negative = inhibition) at 10uM": -9.33}, {"smiles": "CCN1C(=O)c2ccccc2Sc2ccc(C(=O)NC(C)C)cc21", "hERG current change (%, negative = inhibition) at 10uM": -0.837}, {"smiles": "Cc1ccc(/C=C/C(=O)Nc2ccc(N(C)C)cc2)o1", "hERG current change (%, negative = inhibition) at 10uM": -14.9}, {"smiles": "O=C(COC(=O)c1cccc(OC(F)F)c1)NC(=O)NC1CCCCC1", "hERG current change (%, negative = inhibition) at 10uM": 11.1}, {"smiles": "Cc1cccc(C(C)C)c1NC(=O)COC(=O)c1cccc(S(=O)(=O)N2CCc3ccccc3C2)c1", "hERG current change (%, negative = inhibition) at 10uM": 5.41}, {"smiles": "Cc1sc2nc(CSc3ccccc3)nc(NCCN(C)C)c2c1C", "hERG current change (%, negative = inhibition) at 10uM": -72.2}, {"smiles": "CCN(CC)CC#CC(O)(c1ccccc1)c1ccccc1", "hERG current change (%, negative = inhibition) at 10uM": -42.5}, {"smiles": "COC(=O)C1=C(C)NC(=O)/C1=C\\c1cccs1", "hERG current change (%, negative = inhibition) at 10uM": -1.2}, {"smiles": "COC(=O)C1=CN(c2ccc(OC)cc2)C=C(C(=O)OC)C1c1ccc([N+](=O)[O-])cc1", "hERG current change (%, negative = inhibition) at 10uM": -16.8}, {"smiles": "CCC(=O)Nc1nc2nc(-c3ccccc3)cc(=O)n2[nH]1", "hERG current change (%, negative = inhibition) at 10uM": 26.5}, {"smiles": "Cc1ccccc1Nc1nc(N)nc(CSc2nnc3sc4ccccc4n23)n1", "hERG current change (%, negative = inhibition) at 10uM": -5.48}, {"smiles": "CC(NC(=O)c1ccco1)C(=O)OCC(=O)c1ccc(Cl)s1", "note": "(centres unmarked)", "hERG current change (%, negative = inhibition) at 10uM": 24.9}, {"smiles": "COc1cc(CNCc2ccc(OC)cc2OC)cc(OC)c1.O=C(O)C(=O)O", "hERG current change (%, negative = inhibition) at 10uM": -29.5}, {"smiles": "Oc1ccc(N2CCN(Cc3cc4c(cc3Br)OCCO4)CC2)cc1", "hERG current change (%, negative = inhibition) at 10uM": -23.9}, {"smiles": "COc1ccccc1OCC(=O)Nc1cc(S(=O)(=O)N2CCCCC2)ccc1N1CCCCC1", "hERG current change (%, negative = inhibition) at 10uM": 2.21}, {"smiles": "COc1ccc2c(c1)c(CC(=O)Nc1ccccc1OC)c(C)n2C(=O)c1ccc(Cl)cc1", "hERG current change (%, negative = inhibition) at 10uM": 6.99}, {"smiles": "C/C(CCc1ccc2c(c1)OCO2)=N\\N=C(/N)SC1CC(=O)N(c2ccc(Cl)cc2)C1=O", "note": "(centres unmarked)", "hERG current change (%, negative = inhibition) at 10uM": 9}, {"smiles": "COc1ccccc1NC(=O)N1CCCC1C(=O)NCc1ccc(F)cc1", "note": "(centres unmarked)", "hERG current change (%, negative = inhibition) at 10uM": 0.281}, {"smiles": "O=C(c1ccc(Cl)c(S(=O)(=O)N2CCOCC2)c1)N1CCCCCC1", "hERG current change (%, negative = inhibition) at 10uM": 6.31}, {"smiles": "COCCCNC(=S)NNC(=S)NCCCOC", "hERG current change (%, negative = inhibition) at 10uM": 6.55}, {"smiles": "COc1ccc(Cc2c(O)nc(SCC(=O)c3ccc(OC)cc3)[nH]c2=O)cc1", "hERG current change (%, negative = inhibition) at 10uM": 1.35}, {"smiles": "CC1Sc2ccc(Cl)cc2-c2nc(N)ncc21", "note": "(centres unmarked)", "hERG current change (%, negative = inhibition) at 10uM": 10.7}, {"smiles": "Cc1cc(C(=O)N/N=C/c2ccc3c(c2)OCO3)c(C)n1-c1ccc(F)cc1", "hERG current change (%, negative = inhibition) at 10uM": 13.1}, {"smiles": "COc1ccc2cc(CN(Cc3ccco3)Cc3nnnn3C3CCCCC3)c(=O)[nH]c2c1", "hERG current change (%, negative = inhibition) at 10uM": -19.4}, {"smiles": "CCCC(C(=O)NCc1ccco1)N(C(=O)CNS(=O)(=O)c1ccc(Cl)cc1)C1CCCC1", "note": "(centres unmarked)", "hERG current change (%, negative = inhibition) at 10uM": -27.8}, {"smiles": "COc1cc(/C=N/NC2=NS(=O)(=O)c3ccccc32)cc(OC)c1OC", "hERG current change (%, negative = inhibition) at 10uM": 8.6}, {"smiles": "CC(=O)C1(c2ccccc2)CCNCC1", "hERG current change (%, negative = inhibition) at 10uM": 12}, {"smiles": "O=C(Cc1ccc(Br)cc1)N1CCCCCC1", "hERG current change (%, negative = inhibition) at 10uM": -0.523}, {"smiles": "CC(C)(C)NC(=O)CSc1nc2ccccc2n1-c1ccccc1", "hERG current change (%, negative = inhibition) at 10uM": -11.3}, {"smiles": "CCOCCn1c(SC(C)C(C)=O)nc2c1c(=O)[nH]c(=O)n2C", "note": "(centres unmarked)", "hERG current change (%, negative = inhibition) at 10uM": -42.8}, {"smiles": "CC1=C(C(=O)Nc2cc(C)ccn2)C(c2ccc(C)cc2)C2=C(CCCC2=O)N1", "note": "(centres unmarked)", "hERG current change (%, negative = inhibition) at 10uM": -13.3}]}]}
